Experimental data as given in PubChem BioAssay (NCI).
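Tested at 5 concentrations; 48 h exposure; 96-well plates; endpoints linearly interpolated, else capped at highest concentration. GI50: concentration for 50% inhibition of growth. At the TGI there is no net growth.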

Tested on: NCI-H322M lung
Experiment: NCI-60 cell line screen, 48 h

Compound Cc1cccc(-c2nc(Nc3ccc(C)c(S(N)(=O)=O)c3)c3ccccc3n2)c1 has a GI50 of 11.4 µM and a TGI of 27.7 µM.
